From PubChem BioAssay AID686978 (National Center for Advancing Translational Sciences (NCATS), 2013)
Hit rate of the full screen: of about 420,000 compounds, about 64,000 (15%) were called active. This list was built around the results that the source calls inconclusive (neither active nor inactive); the mix of calls is not that of the screen. Calls come from the whole dose curve; as a rule, active = well fitted inhibition curve with a large enough effect; inconclusive = small, poorly fitted or top-dose-only effect; inactive = flat fitted curve, though single readings scatter. No potency is given beside an inconclusive call; the fits are too rough.

Assay: qHTS for Inhibitors of human tyrosyl-DNA phosphodiesterase 1 (TDP1): qHTS in cells in absence of CPT; note: nearly all actives have a fitted effect of over 55% in size
Settings: DT40 Tdp1-/- hTDP1 cells, no CPT, ATP luminescence, 48 h; activity change, negative = growth inhibition: at 46.2 µM (top of the series) unless noted
Outline: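 Compound effects on proliferation are scored in DT40 Tdp1-/-;hTDP1 cells in the absence of CPT. ATP levels (CellTiter-Glo luminescence) are recorded after a ≥48 hr, 37 °C incubation.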
% is set by controls: 0 for no effect and ±100 for the full control effect; potency is the fitted concentration of half-maximal effect; tags give direction and shape of the fitted curve.

SMILES | Potency | activity change, negative = growth inhibition
O=c1[nH]c(COc2ccc(Br)cc2Cl)nc2ccccc12 | inconclusive [inhibitor, single point] | –
OCCn1c(C(F)(F)F)nc2ccccc21 | – | inactive: -15.5%
Cc1cc(C)c(NC(=O)C(=O)NCC(c2cccnc2)N2CCN(Cc3ccccc3)CC2)c(C)c1 (stereo unspecified) | active: 5.8 µM | –
COc1ccc(S(=O)(=O)Nc2ccc(O)c3ccccc23)cc1 | active: 4.61 µM | –
CCOC(=O)C1=CCN(S(=O)(=O)c2ccccc2)C1c1ccccc1 (stereo unspecified) | inconclusive [inhibitor, single point] | –
Cn1c(O)c(C=Nc2ccc(Br)cc2)sc1=O | – | inconclusive: -30.5% [inhibitor]
COc1ccc(S(=O)(=O)N2CCC(C(=O)NCCc3ccccc3)CC2)cc1 | – | inactive: -9.51%
COc1ccc2nc(NC(=O)c3cccs3)sc2c1 | inconclusive [inhibitor, single point] | –
CCCC(=O)Nc1cc(C)c2c(=O)oc3ccccc3c2n1 | inconclusive [inhibitor, single point] | –
COc1ccc(C)cc1NC(=O)Nc1ccccc1OCc1cc(=O)n2ccccc2n1 | inconclusive [inhibitor, single point] | –
CCCCNC(=O)c1cnc2sc(N3CCCCCC3)nn2c1=O | inconclusive [inhibitor, single point] | –
O=c1c2cc(Cl)ccc2[nH]c(=S)n1Cc1ccco1 | inconclusive [inhibitor, single point] | –
CCC(C(=O)NCc1cccnc1)c1ccccc1 (stereo unspecified) | – | inactive: 16.4%
CN(C)c1ccc(NC(=O)c2cccc([N+](=O)[O-])c2)c2ccccc12 | inconclusive [inhibitor, single point] | –
NC(Cc1ccccc1)c1csc(Nc2ccc(C(=O)c3ccccc3)cc2)n1 (stereo unspecified) | active: 8.2 µM | –
COC(=O)c1[nH]c2ccc(Br)cc2c1NC(=O)CN1CCCCC1CCO (stereo unspecified) | inconclusive [inhibitor, single point] | –
CCc1nc(NCc2cccnc2)c2oc3ccccc3c2n1 | inconclusive [inhibitor, partial curve] | –
COc1ccc(C2c3c(ncn(CCCN4CCOCC4)c3=N)Oc3ccc4ccccc4c32)cc1OC (stereo unspecified) | active: 13 µM | –
CC(C)COC(=O)c1nnsc1NC(=O)Nc1ccccc1 | inconclusive [inhibitor, single point] | –
O=C(COC(=O)c1ccc(F)c(S(=O)(=O)N2CCOCC2)c1)NC1CC1 | – | inactive: 13.3%
CC(C)(C)c1ccc(S(=O)(=O)n2c(CN3CCOCC3)nc3ccccc32)cc1 | inconclusive [inhibitor, single point] | –
CC(C)(C)C(=O)Nc1nc2c(s1)CN(Cc1ccccc1)CC2 | active: 18.4 µM | –
O=C(NC(Cc1ccc(O)cc1)C(=O)N=Nc1c(O)[nH]c2ccccc12)c1ccccc1 (stereo unspecified) | – | inactive: -19%

SMILES | Potency | activity change, negative = growth inhibition
Cc1ccc(OCCOC(=O)CN2C(=O)NC3(CCCC3)C2=O)cc1 | – | inactive: -24.7%
COc1ccc(CCC(=O)NNC(=O)c2cc(Cl)ccc2OC)cc1 | – | inactive: -17.1%
COc1ccc(N2CCN(C(=O)CN(c3ccc(OC)cc3)S(=O)(=O)c3ccccc3)CC2)cc1 | active: 23.1 µM | –
CCOC(=O)c1c(NC(=O)CCN2CCOCC2)sc2c1CC(C)(C)OC2 | inconclusive [inhibitor, single point] | –
O=c1c(Cl)c(N2CCN(S(=O)(=O)c3ccc(F)cc3)CC2)cnn1-c1cccc(Cl)c1 | inconclusive [inhibitor, single point] | –
Clc1ccc(C(c2nnnn2C2CCCC2)N2CCN(Cc3ccncc3)CC2)cc1 (stereo unspecified) | inconclusive [inhibitor, single point] | –
O=C(CSc1nc(C2CCCCC2)n(-c2ccccc2)n1)NCC(F)(F)F | inconclusive [inhibitor, single point] | –
COc1ccc(OCC(=O)Nc2nc3ccccc3[nH]2)cc1 | inconclusive [inhibitor, partial curve] | –
Cc1cccc(NS(=O)(=O)c2ccc(C)c(C(=O)NCC(c3cccs3)N(C)C)c2)c1 (stereo unspecified) | inconclusive [inhibitor, single point] | –
O=C(/C=C\c1ccco1)Nc1cc([N+](=O)[O-])ccc1F | active: 1.64 µM | –
O=C(NCc1ccccn1)c1ccc(Cn2c(=S)[nH]c3ccc(Br)cc3c2=O)cc1 | active: 6.51 µM | –
O=C(O)c1ccc(NC2=C(N3CCOCC3)C(=O)c3ccccc3C2=O)cc1 | inconclusive [inhibitor, single point] | –
COc1ccc2c(c1)c(CC(=O)OC(C)C(=O)N(C)C)c(C)n2C(=O)c1ccc(Cl)cc1 (stereo unspecified) | active: 14.6 µM | –
CC1(C)CC(=O)C=C(c2n[nH]nc2C2CCCCC2)C1 | – | inactive: -10.8%
COc1ccc(-n2cc(C(=O)OCc3ccc(Cl)cc3)c3ccccc3c2=O)cc1 | – | inactive: -1.24%
c1ccc2c(-c3ccc4nncn4c3)cncc2c1 | – | inconclusive: -30.5% [inhibitor]
COc1ccc(-c2cnc3c(c2)C(=O)N([C@H](C)CO)C[C@@H](C)[C@H](CN(C)Cc2ccccc2)O3)cc1 | inconclusive [inhibitor, single point] | –
CCOc1ccc2nc(N3CCCC(C(=O)NCCCN4CC(C)CC(C)C4)C3)sc2c1 (stereo unspecified) | active: 18.4 µM | –
Cc1cccc(N(C(=O)CCC(=O)Nc2ccccn2)C(C(=O)NC(C)C)c2ccc(F)cc2)c1 (stereo unspecified) | inconclusive [inhibitor, partial curve] | –
CN1CCN(c2nc(Nc3ccc(F)cc3)nc(Nc3ccc(F)cc3)n2)CC1 | inconclusive [inhibitor, partial curve, poor fit] | –
COC(=O)CN1C(C)=Nc2ccc(C)cc2C1c1ccccc1 (stereo unspecified) | – | inactive: -24.5%
O=C(N/N=C/c1ccccn1)c1cc(-c2ccncc2)nc2ccccc12 | inconclusive [inhibitor, partial curve] | –
CCCCCCc1cc2cc(-c3nnc(-c4ccccc4O)o3)c(=O)oc2cc1O | active: 7.31 µM | –
